{
  "source": "paper PMC9911399",
  "about": "“Two distinct binding modes provide the RNA-binding protein RbFox with extraordinary sequence specificity”",
  "binders": {"B1": {"name": "GAAGGGA (DNA:RNA)", "RNA": "GGGAGACCGGAAUUCAGAUUGUCCGAAGGGAUUAAAUCCCGUCGUAGCCACCA", "DNA 1": "CAATCTGAATTCCGGTCTCCC", "DNA 2": "TGGTGGCTACGACGGGATT"}, "B2": {"name": "CAGGUGU (DNA:RNA)", "RNA": "B1 RNA with G25C, A27G, G29U, A31U", "DNA 1": "CAATCTGAATTCCGGTCTCCC", "DNA 2": "TGGTGGCTACGACGGGATT"}, "B3": {"name": "AAACUUC (DNA:RNA)", "RNA": "B1 RNA with G25A, G28C, G29U, G30U, A31C", "DNA 1": "CAATCTGAATTCCGGTCTCCC", "DNA 2": "TGGTGGCTACGACGGGATT"}, "B4": {"name": "CCGGGCU (DNA:RNA)", "RNA": "B1 RNA with G25C, A26C, A27G, G30C, A31U", "DNA 1": "CAATCTGAATTCCGGTCTCCC", "DNA 2": "TGGTGGCTACGACGGGATT"}, "B5": {"name": "UGAGAUG (DNA:RNA)", "RNA": "B1 RNA with G25U, A26G, G29A, G30U, A31G", "DNA 1": "CAATCTGAATTCCGGTCTCCC", "DNA 2": "TGGTGGCTACGACGGGATT"}, "B6": {"name": "GCGAUUG (DNA:RNA)", "RNA": "B1 RNA with A26C, A27G, G28A, G29U, G30U, A31G", "DNA 1": "CAATCTGAATTCCGGTCTCCC", "DNA 2": "TGGTGGCTACGACGGGATT"}, "B7": {"name": "ACCUUCC (DNA:RNA)", "RNA": "GGGAGACCGGAAUUCAGAUUGUCCACCUUCCUUAAAUCCCGUCGUAGCCACCA", "DNA 1": "CAATCTGAATTCCGGTCTCCC", "DNA 2": "TGGTGGCTACGACGGGATT"}, "B8": {"name": "UAAACUC (DNA:RNA)", "RNA": "B1 RNA with G25U, G28A, G29C, G30U, A31C", "DNA 1": "CAATCTGAATTCCGGTCTCCC", "DNA 2": "TGGTGGCTACGACGGGATT"}, "B9": {"name": "CAGGCCA (DNA:RNA)", "RNA": "B1 RNA with G25C, A27G, G29C, G30C", "DNA 1": "CAATCTGAATTCCGGTCTCCC", "DNA 2": "TGGTGGCTACGACGGGATT"}, "B10": {"name": "CAUUGCG (DNA:RNA)", "RNA": "B7 RNA with A25C, C26A, C27U, U29G, C31G", "DNA 1": "CAATCTGAATTCCGGTCTCCC", "DNA 2": "TGGTGGCTACGACGGGATT"}, "B11": {"name": "UGAGAAA (DNA:RNA)", "RNA": "B1 RNA with G25U, A26G, G29A, G30A", "DNA 1": "CAATCTGAATTCCGGTCTCCC", "DNA 2": "TGGTGGCTACGACGGGATT"}, "B12": {"name": "GUUGCAC (DNA:RNA)", "RNA": "B1 RNA with A26U, A27U, G29C, G30A, A31C", "DNA 1": "CAATCTGAATTCCGGTCTCCC", "DNA 2": "TGGTGGCTACGACGGGATT"}, "B13": {"name": "UCUAUAG (DNA:RNA)", "RNA": "B7 RNA with A25U, C27U, U28A, C30A, C31G", "DNA 1": "CAATCTGAATTCCGGTCTCCC", "DNA 2": "TGGTGGCTACGACGGGATT"}, "B14": {"name": "GUAUCCU (DNA:RNA)", "RNA": "B7 RNA with A25G, C26U, C27A, U29C, C31U", "DNA 1": "CAATCTGAATTCCGGTCTCCC", "DNA 2": "TGGTGGCTACGACGGGATT"}, "B15": {"name": "UCUAUAU (DNA:RNA)", "RNA": "B7 RNA with A25U, C27U, U28A, C30A, C31U", "DNA 1": "CAATCTGAATTCCGGTCTCCC", "DNA 2": "TGGTGGCTACGACGGGATT"}, "B16": {"name": "ACCUCAU (DNA:RNA)", "RNA": "B7 RNA with U29C, C30A, C31U", "DNA 1": "CAATCTGAATTCCGGTCTCCC", "DNA 2": "TGGTGGCTACGACGGGATT"}, "B17": {"name": "AACUGCC (DNA:RNA)", "RNA": "B7 RNA with C26A, U29G", "DNA 1": "CAATCTGAATTCCGGTCTCCC", "DNA 2": "TGGTGGCTACGACGGGATT"}, "B18": {"name": "UUGUCCU (DNA:RNA)", "RNA": "B7 RNA with A25U, C26U, C27G, U29C, C31U", "DNA 1": "CAATCTGAATTCCGGTCTCCC", "DNA 2": "TGGTGGCTACGACGGGATT"}, "B19": {"name": "AGCGCCG (DNA:RNA)", "RNA": "B7 RNA with C26G, U28G, U29C, C31G", "DNA 1": "CAATCTGAATTCCGGTCTCCC", "DNA 2": "TGGTGGCTACGACGGGATT"}, "B20": {"name": "GAGUAGA (DNA:RNA)", "RNA": "B1 RNA with A27G, G28U, G29A", "DNA 1": "CAATCTGAATTCCGGTCTCCC", "DNA 2": "TGGTGGCTACGACGGGATT"}, "B21": {"name": "UCUAAAU (DNA:RNA)", "RNA": "B7 RNA with A25U, C27U, U28A, U29A, C30A, C31U", "DNA 1": "CAATCTGAATTCCGGTCTCCC", "DNA 2": "TGGTGGCTACGACGGGATT"}, "B22": {"name": "CGACAAU (DNA:RNA)", "RNA": "B1 RNA with G25C, A26G, G28C, G29A, G30A, A31U", "DNA 1": "CAATCTGAATTCCGGTCTCCC", "DNA 2": "TGGTGGCTACGACGGGATT"}, "B23": {"name": "AGGGAUA (DNA:RNA)", "RNA": "B1 RNA with G25A, A26G, A27G, G29A, G30U", "DNA 1": "CAATCTGAATTCCGGTCTCCC", "DNA 2": "TGGTGGCTACGACGGGATT"}, "B24": {"name": "CGAUUUG (DNA:RNA)", "RNA": "B7 RNA with A25C, C26G, C27A, C30U, C31G", "DNA 1": "CAATCTGAATTCCGGTCTCCC", "DNA 2": "TGGTGGCTACGACGGGATT"}, "B25": {"name": "GCAAUUG (DNA:RNA)", "RNA": "B7 RNA with A25G, C27A, U28A, C30U, C31G", "DNA 1": "CAATCTGAATTCCGGTCTCCC", "DNA 2": "TGGTGGCTACGACGGGATT"}, "B26": {"name": "AAAGUUC (DNA:RNA)", "RNA": "B7 RNA with C26A, C27A, U28G, C30U", "DNA 1": "CAATCTGAATTCCGGTCTCCC", "DNA 2": "TGGTGGCTACGACGGGATT"}, "B27": {"name": "UGGUUAG (DNA:RNA)", "RNA": "B7 RNA with A25U, C26G, C27G, C30A, C31G", "DNA 1": "CAATCTGAATTCCGGTCTCCC", "DNA 2": "TGGTGGCTACGACGGGATT"}, "B28": {"name": "AGGAUUA (DNA:RNA)", "RNA": "B7 RNA with C26G, C27G, U28A, C30U, C31A", "DNA 1": "CAATCTGAATTCCGGTCTCCC", "DNA 2": "TGGTGGCTACGACGGGATT"}, "B29": {"name": "GCUGUUG (DNA:RNA)", "RNA": "B7 RNA with A25G, C27U, U28G, C30U, C31G", "DNA 1": "CAATCTGAATTCCGGTCTCCC", "DNA 2": "TGGTGGCTACGACGGGATT"}, "B30": {"name": "CCAUGAC (DNA:RNA)", "RNA": "B7 RNA with A25C, C27A, U29G, C30A", "DNA 1": "CAATCTGAATTCCGGTCTCCC", "DNA 2": "TGGTGGCTACGACGGGATT"}, "B31": {"name": "ACCCGUC (DNA:RNA)", "RNA": "B7 RNA with U28C, U29G, C30U", "DNA 1": "CAATCTGAATTCCGGTCTCCC", "DNA 2": "TGGTGGCTACGACGGGATT"}},
  "note": "Positions count from the first letter of the chain named. This is one part of the list.",
  "data": [
    {"molecular_target": "T1, RBFOX1 RRM (Homo sapiens, UniProt Q9NWB1 109-208)", "T1 sequence": "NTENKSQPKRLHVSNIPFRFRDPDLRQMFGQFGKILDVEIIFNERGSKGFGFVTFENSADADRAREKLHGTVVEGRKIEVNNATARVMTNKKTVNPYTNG", "experiment": "EMSA; HiTS-Eq, 1 nM pool, 10 min; buffer printed only for the single-RNA assays: 10 mM Tris pH 7.5, 150 mM NaCl, 3.4 mM EDTA, 0.001% NP-40, 30 C", "conditions": "tags: His6 N-terminal (pET28a); label: 5' 32P", "outline": "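A pool of RNA with 7 randomized nucleotides, 5′-radiolabelled and with DNA-annealed flanks, was equilibrated at 1 nM for 10 min in 50 µL with purified RbFox RRM, wild type or mutant, across increasing protein concentrations. Free RNA was separated by 8% native PAGE, excised, reverse-transcribed, barcoded by PCR and sequenced. Relative association constants were obtained from read-count changes of each RNA species versus the control reaction and normalised to the cognate motif.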", "values": [
      {"binder": "B1", "binding signal": "0.00631 KA relative to UGCAUGU"},
      {"binder": "B2", "binding signal": "0.0168 KA relative to UGCAUGU"},
      {"binder": "B3", "binding signal": "0.00194 KA relative to UGCAUGU"},
      {"binder": "B4", "binding signal": "0.00883 KA relative to UGCAUGU"},
      {"binder": "B5", "binding signal": "0.0273 KA relative to UGCAUGU"},
      {"binder": "B6", "binding signal": "0.0164 KA relative to UGCAUGU"},
      {"binder": "B7", "binding signal": "0.00208 KA relative to UGCAUGU"},
      {"binder": "B8", "binding signal": "0.00452 KA relative to UGCAUGU"},
      {"binder": "B9", "binding signal": "0.00956 KA relative to UGCAUGU"},
      {"binder": "B10", "binding signal": "0.0103 KA relative to UGCAUGU"},
      {"binder": "B11", "binding signal": "0.016 KA relative to UGCAUGU"},
      {"binder": "B12", "binding signal": "0.0203 KA relative to UGCAUGU"},
      {"binder": "B13", "binding signal": "0.00762 KA relative to UGCAUGU"},
      {"binder": "B14", "binding signal": "0.00994 KA relative to UGCAUGU"},
      {"binder": "B15", "binding signal": "0.00154 KA relative to UGCAUGU"},
      {"binder": "B16", "binding signal": "0.00153 KA relative to UGCAUGU"},
      {"binder": "B17", "binding signal": "0.00713 KA relative to UGCAUGU"},
      {"binder": "B18", "binding signal": "0.0126 KA relative to UGCAUGU"},
      {"binder": "B19", "binding signal": "0.00843 KA relative to UGCAUGU"},
      {"binder": "B20", "binding signal": "0.0139 KA relative to UGCAUGU"},
      {"binder": "B21", "binding signal": "0.0034 KA relative to UGCAUGU"},
      {"binder": "B22", "binding signal": "0.00242 KA relative to UGCAUGU"},
      {"binder": "B23", "binding signal": "0.0168 KA relative to UGCAUGU"},
      {"binder": "B24", "binding signal": "0.0154 KA relative to UGCAUGU"},
      {"binder": "B25", "binding signal": "0.0136 KA relative to UGCAUGU"},
      {"binder": "B26", "binding signal": "0.0059 KA relative to UGCAUGU"},
      {"binder": "B27", "binding signal": "0.0202 KA relative to UGCAUGU"},
      {"binder": "B28", "binding signal": "0.0123 KA relative to UGCAUGU"},
      {"binder": "B29", "binding signal": "0.028 KA relative to UGCAUGU"},
      {"binder": "B30", "binding signal": "0.0094 KA relative to UGCAUGU"},
      {"binder": "B31", "binding signal": "0.00333 KA relative to UGCAUGU"}
    ]}
  ]
}
